Experimental data as given in PubChem BioAssay AID1460 (National Center for Advancing Translational Sciences (NCATS), 2008).
Several values for one entry are separate records, joined by “and”; a condition that tells them apart may be missing. Equal values may be shown once. About 5,800 (2.1%) of roughly 270,000 compounds were called active. Inconclusive results, whose numbers are uncertain, are shown with a selection of clear calls. The call rests on the fitted dose curve; in most records, active means well fitted inhibition curve with a large enough effect; inconclusive means small, poorly fitted or top-dose-only effect; inactive means flat fitted curve, though single readings scatter. Potencies of inconclusive entries are doubtful fits and often do not repeat.

What follows are compounds tested against Microtubule-associated protein tau (Homo sapiens) (UniProt P10636) (assay: qHTS for Inhibitors of Tau Fibril Formation, Thioflavin T Binding). Details: recombinant tau K18 P301L (four-repeat tau fragment), heparin-induced fibrillization, ThT fluorescence; series mostly up to 57.4 µM; activity, negative = inhibition: at the top concentration.
Outline: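 Heparin-induced fibrillization of the P301L-mutant K18 repeat-domain fragment of human tau was followed by ThT binding in quantitative high-throughput format.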
Further: nearly all actives have a fitted effect of over 55% in size.
On the % scale 0 is the no-effect control and ±100 the full control effect; potency means the concentration at half of the fitted maximal effect; tags describe the fitted curve by direction and shape.

Chain of UniProt P10636 (P10636 whole entry, looked up, the tested form may be a part): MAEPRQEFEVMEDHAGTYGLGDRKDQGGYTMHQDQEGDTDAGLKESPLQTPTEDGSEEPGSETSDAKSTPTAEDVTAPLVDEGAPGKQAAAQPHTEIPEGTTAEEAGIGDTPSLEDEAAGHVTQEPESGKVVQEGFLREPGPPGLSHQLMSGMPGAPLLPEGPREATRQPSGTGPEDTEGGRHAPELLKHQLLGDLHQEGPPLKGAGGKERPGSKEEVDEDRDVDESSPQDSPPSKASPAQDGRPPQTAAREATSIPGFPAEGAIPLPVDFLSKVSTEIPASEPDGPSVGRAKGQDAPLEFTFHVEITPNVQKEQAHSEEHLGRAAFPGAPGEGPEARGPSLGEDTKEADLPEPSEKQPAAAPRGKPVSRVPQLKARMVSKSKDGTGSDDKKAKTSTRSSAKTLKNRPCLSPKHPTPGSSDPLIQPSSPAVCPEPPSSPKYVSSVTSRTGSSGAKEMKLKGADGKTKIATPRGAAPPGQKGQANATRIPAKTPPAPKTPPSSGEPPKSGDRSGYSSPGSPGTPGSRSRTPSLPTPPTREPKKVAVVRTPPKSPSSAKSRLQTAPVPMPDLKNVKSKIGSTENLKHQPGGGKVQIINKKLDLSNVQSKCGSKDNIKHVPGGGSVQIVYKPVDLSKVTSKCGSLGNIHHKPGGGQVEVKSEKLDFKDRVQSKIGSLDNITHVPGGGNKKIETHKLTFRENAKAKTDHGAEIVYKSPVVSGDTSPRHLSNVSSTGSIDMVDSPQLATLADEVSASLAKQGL

Compound	activity, negative = inhibition	Potency
CCOC(=O)CNC(=O)c1sc(NC(=O)c2cccc(F)c2)nc1C	inactive: -5.27%	–
O=C(CSc1nc(=O)[nH]c2c1CCCC2)Nc1ccc(Cl)c(Cl)c1	inactive: 3.98%	–
Cn1cnnc1Sc1cc(N2CCN(S(=O)(=O)c3ccccc3)CC2)ccc1[N+](=O)[O-]	–	inconclusive: 20 µM [inhibitor, partial curve]
N#Cc1c[nH]n2c(=O)cc(Cc3ccccc3)nc12	–	inconclusive: 44.7 µM [inhibitor, single point]
COc1ccc(N2CC(NC(=O)c3cccs3)CC2=O)cc1 (stereo not drawn)	inactive: 3.06%	–
CCC(C)NC(=O)c1ccccc1NC(=O)CN1C(=O)c2ccccc2S1(=O)=O (stereo not drawn)	–	inconclusive: 0.126 µM [activator, full curve, poor fit]
Cc1nn(Cc2ccccc2)c(Cl)c1C(=O)NCc1ccc(C)n1C	–	inconclusive: 20 µM [inhibitor, single point]
COc1ccc(NC(=O)C(Cc2c[nH]c3ccccc23)NC(=O)OC(C)(C)C)cc1 (stereo not drawn)	–	inconclusive: 31.6 µM [inhibitor, single point]
CC(OC(=O)c1cccnc1SCc1cc(=O)n2ccccc2n1)c1ccccn1 (stereo not drawn)	–	inconclusive: 22.4 µM [inhibitor, partial curve]
CCN1C(=O)/C(=C\c2ccco2)C(C(=O)OC)=C1C	–	inconclusive: 22.4 µM [inhibitor, partial curve]
O=[N+]([O-])c1cccc(-c2ccc(C(=S)N3CCN(c4ccccc4)CC3)o2)c1	–	active: 20 µM
CCN(CC)C(=O)c1ccc2c(c1)N(Cc1c(F)cccc1Cl)C(=O)c1ccccc1S2	–	inconclusive: 0.0251 µM [inhibitor, full curve, poor fit]
COc1cc(CN2CCNC(=O)C2CC(=O)N2CCCCO2)cc(OC)c1 (stereo not drawn)	inactive: -8.65%	–
O=S(=O)(c1cccc(C(F)(F)F)c1)N(CCCN1CCOCC1)Cc1cccs1	–	inactive
COc1ccc(OC)c(/C=C/C(=O)Nc2ccc3c(c2)CCC3)c1	–	inconclusive: 14.1 µM [inhibitor, partial curve]
CC(=O)OCC1OC(C#Cc2ccccc2)C=CC1OC(C)=O (stereo not drawn)	–	inconclusive: 5.62 µM [inhibitor, partial curve] and inconclusive: 3.55 µM [inhibitor, partial curve]
COc1cc2[nH]c(=O)n(CCCCCC(=O)N3CC=C(c4ccccc4)CC3)c(=O)c2cc1OC	–	inconclusive: 1 µM [inhibitor, full curve]
CCCCn1nnc(NC(=O)Cc2ccc(Cl)cc2)n1	inactive: -0.892%	–
O=C1CC(N2C(=O)/C(=C/C=C/c3ccccc3)SC2=S)C(=O)N1c1ccccc1 (stereo not drawn)	–	inconclusive: 5.01 µM [inhibitor, partial curve]
CC(C)C(NS(=O)(=O)c1ccc2c(c1)oc(=O)n2C)C(=O)N1CCN(c2cccc(Cl)c2)CC1 (stereo not drawn)	inactive: -7.11%	–
C(=C\c1ccco1)/c1ccc2ccccc2n1	–	active: 31.6 µM
CCOc1cccc2sc(N3CCN(C(=O)c4ccc5c(c4)CCCC5)CC3)nc12	–	inconclusive: 15.8 µM [inhibitor, partial curve]
Cc1cccc(NCc2ccccc2O)c1C	–	inconclusive: 25.1 µM [inhibitor, single point]

Compound	activity, negative = inhibition	Potency
Cc1cc(/C=N/NC(=O)c2ccc(O)cc2)c(C)n1CC(C)C	–	inconclusive: 25.1 µM [inhibitor, partial curve]
COC(=O)c1cc(O)c(OCc2ccccc2)c(O)c1	inactive: -10.4%	–
CCOP(=O)(OCC)C(NC(=O)Nc1cccc(Cl)c1)C(N)=O (stereo not drawn)	inactive: 4.1%	–
CCOC(=O)c1c(S(=O)(=O)N2CCC(C(=O)NCc3cccc(C)c3)CC2)c(C)n(C)c1C	inactive: 11.1%	–
COc1ccc(NC(=O)Nc2ccc(OC)c(OC)c2)c([N+](=O)[O-])c1	–	inconclusive: 1.26 µM [inhibitor, full curve, poor fit]
Nc1nc2ccccc2n1/N=C/c1ccc(Br)cc1	–	inconclusive: 0.251 µM [inhibitor, partial curve, poor fit]
CCCc1ccc(C(=O)[C@@H]2[C@@H](C(C)=O)N3c4ccc(F)cc4C=C[C@@H]3[C@@]23C(=O)Nc2ccccc23)cc1	–	inconclusive: 39.8 µM [inhibitor, single point]
CCS(=O)(=O)N1CCN(c2ccc([N+](=O)[O-])c(NCc3cccnc3)c2)CC1	–	inconclusive: 15.8 µM [inhibitor, partial curve]
COc1ccccc1NC(=O)CSc1nc(O)c(C/C=C/c2ccccc2)c(=O)[nH]1	inactive: -15.9%	–
Cc1ccc(C(=O)n2nc(C)c(S(=O)(=O)N3CCCCCC3)c2C)cc1C	–	inconclusive: 31.6 µM [inhibitor, single point]
Cc1c(Cl)cnn1CC(=O)NC1C(=O)N2C(C(=O)O)=C(CSc3nnnn3C)CSC12 (stereo not drawn)	–	inconclusive: 28.2 µM [inhibitor, single point]
O=[N+]([O-])c1ccc(S(=O)(=O)CC(CN2CCCCC2)N2CCCCC2)cc1 (stereo not drawn)	–	inconclusive: 39.8 µM [inhibitor, single point]
COc1cc(/C=C2\C(=O)ON=C2c2ccccc2)cc(Cl)c1O	–	inconclusive: 10 µM [inhibitor, partial curve]
Cc1ccc(S(=O)(=O)N2CC=C(c3c(C)n(C)c4ccccc34)CC2)cc1	–	inconclusive: 17.8 µM [inhibitor, partial curve]
CCN(CC)S(=O)(=O)c1ccc(NC(=O)c2cc3ccc4cccnc4c3[nH]2)cc1	–	inconclusive: 11.2 µM [activator, partial curve]
CN(Cc1ccccc1)c1nnc(NC(=O)Nc2cccc(Br)c2)s1	–	inconclusive: 31.6 µM [inhibitor, single point]
Cc1ccc(-n2nc(C(=O)Nc3ccc(F)cc3Cl)c(=O)n(C)c2=O)cc1	inactive: 6.22%	–
C=CCN(CC=C)CCOc1cc(C)ccc1[N+](=O)[O-]	inactive: -14.5%	–
Cc1cc(N2CCN(C)CC2)nc2ccc(NC(=O)c3ccc(C(C)(C)C)cc3)cc12	–	inconclusive: 14.1 µM [inhibitor, partial curve]
O=C(CN1C(=O)C(=O)c2ccccc21)NC1CCCCC1	inactive: -5.34%	–
CC1=NN(Cc2ccccc2)C(=O)/C1=C\c1ccc(N(C)C)cc1	–	active: 20 µM
CCc1nn(CC(=O)N2CCN(c3cccc(OC)c3)CC2)c(=O)c2cc3occc3n12	inactive: 1.31%	–
COc1ccc2[nH]c(C)c(CCNC(=S)Nc3ccc(C)cc3)c2c1	–	inconclusive: 11.2 µM [inhibitor, partial curve]

Compound	activity, negative = inhibition	Potency
Cc1cccc(-c2noc(CCCC(=O)Nc3ccc(C(N)=O)cc3)n2)c1	–	inconclusive: 17.8 µM [inhibitor, single point]
CCOC(=O)C1=C(O)C(=O)N(Cc2ccc(C(C)(C)C)cc2)CC1	inactive: -5.72%	–
CC[N+](CC)(CC)CCCCOc1ccc2c(c1)C(=O)c1cc(OCCCC[N+](CC)(CC)CC)ccc1-2	–	inconclusive: 17.8 µM [inhibitor, partial curve]
COc1ccc(C2=C(Nc3ccc(Br)c(C)c3)c3ccccc3C2=O)cc1	–	inconclusive: 3.98 µM [inhibitor, full curve]
Cn1c(O)c(C2=c3ccccc3=NC2=O)sc1=Nc1ccc(Cl)cc1	–	active: 10 µM
CCCCc1ccc(NC(=O)c2cc(-c3ccc(C)c(F)c3)on2)cc1	–	inconclusive: 20 µM [inhibitor, partial curve]
Cc1ccc(NC(=O)CN2C(=O)CCc3ccccc32)cc1C	–	inconclusive: 15.8 µM [inhibitor, partial curve]
Cc1ccc(OCc2nc(-c3ccc(C(=O)NCCc4ccc(Cl)cc4)cc3)oc2C)cc1	inactive: 3.07%	–
Cc1ccc(S(=O)(=O)N2CCCCC2C(=O)Nc2nncs2)cc1 (stereo not drawn)	–	inconclusive: 35.5 µM [inhibitor, partial curve]
C=CCN1C=CC(=C/C=C(/C#N)C(=O)OCC)C=C1	–	inconclusive: 28.2 µM [inhibitor, partial curve]
CCN1C(=O)/C(=C2\SC(=S)N(CC3CCCO3)C2=O)c2ccccc21 (stereo not drawn)	–	inconclusive: 4.47 µM [inhibitor, full curve]
CC1(C)c2ccccc2N2CC(=O)NC21/C=C/c1ccco1 (stereo not drawn)	–	inconclusive: 28.2 µM [inhibitor, partial curve]
N#Cc1nc(-c2ccc(OCc3ccc(Cl)cc3)cc2)oc1NCc1cccnc1	inactive: -2.53%	–
COc1ccc(-c2c3c(=O)n(C)c(=O)n(C)c3cn2-c2ccc(O)cc2)cc1	–	inconclusive: 39.8 µM [inhibitor, single point]
O=S(=O)(NCCc1csc2nc(-c3ccccc3)nn12)c1cccs1	–	inconclusive: 44.7 µM [inhibitor, single point]
CCOc1ccc(-c2cn3c(n2)sc2cc(C(=O)NCCc4ccc(OC)cc4OC)ccc23)cc1	–	inconclusive: 0.631 µM [inhibitor, full curve, poor fit]
Cc1cc(N2CCOCC2)nc2ccc(NC(=O)C3CCC(C)CC3)cc12 (stereo not drawn)	–	inconclusive: 17.8 µM [inhibitor, partial curve]
N#CC1=C(N)Oc2cc(O)c(C=Nc3ccccc3)cc2C1c1ccccc1 (stereo not drawn)	–	inconclusive: 14.1 µM [inhibitor, partial curve]
COc1cccc(C(=O)Nc2nc(-c3ccncc3)cs2)c1	–	inconclusive: 5.62 µM [inhibitor, full curve]
CC(C)CCOc1ccc(C2N=C(N)Nc3nc4ccccc4n32)cc1 (stereo not drawn)	inactive: -10.2%	–
Cc1cc(C)c2c(c1)c(C)cc1nnc(SCC(=O)c3cccs3)n12	inactive: -6.69%	–
Cc1nn(C(C)C(=O)NC2CCC(C)CC2)c(=O)c2c1sc1ccccc12 (stereo not drawn)	–	inconclusive: 11.2 µM [activator, partial curve]
